The values below come from paper PMC7125142.

The chains behind the UniProt entries cited, without tags or fusion partners. Where a name states a change or a piece, a line headed by the entry shows the natural chain unless it says otherwise. A line that says so, or that is headed by a name, gives the form on record, which may keep a tag or linker. Residues count along the entry.
UniProt P09874: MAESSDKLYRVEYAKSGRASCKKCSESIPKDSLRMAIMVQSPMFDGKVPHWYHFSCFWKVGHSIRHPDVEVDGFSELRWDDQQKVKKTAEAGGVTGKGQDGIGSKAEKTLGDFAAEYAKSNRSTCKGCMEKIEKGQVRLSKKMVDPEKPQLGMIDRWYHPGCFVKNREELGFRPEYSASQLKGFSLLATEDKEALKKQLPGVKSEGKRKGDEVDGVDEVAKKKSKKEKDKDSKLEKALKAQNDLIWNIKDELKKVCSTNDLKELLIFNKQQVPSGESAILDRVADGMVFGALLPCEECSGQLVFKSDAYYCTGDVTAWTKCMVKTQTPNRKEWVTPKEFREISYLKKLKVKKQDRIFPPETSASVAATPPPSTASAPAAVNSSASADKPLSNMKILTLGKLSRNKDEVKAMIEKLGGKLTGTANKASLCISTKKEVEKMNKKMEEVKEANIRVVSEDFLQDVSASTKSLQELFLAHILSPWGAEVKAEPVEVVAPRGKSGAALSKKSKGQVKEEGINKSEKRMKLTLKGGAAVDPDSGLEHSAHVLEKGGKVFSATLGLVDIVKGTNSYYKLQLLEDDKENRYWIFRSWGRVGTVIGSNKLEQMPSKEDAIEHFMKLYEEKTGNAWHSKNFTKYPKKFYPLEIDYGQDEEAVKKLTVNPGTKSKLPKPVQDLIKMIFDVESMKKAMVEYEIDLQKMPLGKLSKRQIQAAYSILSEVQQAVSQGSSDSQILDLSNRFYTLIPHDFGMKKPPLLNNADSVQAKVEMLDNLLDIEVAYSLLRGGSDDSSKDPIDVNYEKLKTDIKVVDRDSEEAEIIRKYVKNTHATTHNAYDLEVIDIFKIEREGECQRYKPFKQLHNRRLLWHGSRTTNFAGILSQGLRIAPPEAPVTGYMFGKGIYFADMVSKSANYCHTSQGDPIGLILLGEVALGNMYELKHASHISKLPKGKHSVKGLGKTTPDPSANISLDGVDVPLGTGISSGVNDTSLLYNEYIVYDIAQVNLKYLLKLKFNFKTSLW
UniProt P06748: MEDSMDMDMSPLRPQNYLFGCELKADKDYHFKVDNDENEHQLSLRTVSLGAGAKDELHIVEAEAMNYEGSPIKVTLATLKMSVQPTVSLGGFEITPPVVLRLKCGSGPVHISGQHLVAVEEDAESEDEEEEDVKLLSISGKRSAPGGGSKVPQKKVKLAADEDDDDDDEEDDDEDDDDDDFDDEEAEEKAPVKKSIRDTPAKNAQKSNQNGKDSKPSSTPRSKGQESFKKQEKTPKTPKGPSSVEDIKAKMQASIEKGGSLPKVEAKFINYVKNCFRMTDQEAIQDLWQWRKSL
Flag-tagged NPM1 Δ35 (truncated form of NPM1 with the last 35 amino acids at its C-terminus deleted): residues 1-259 of P06748

Assay [1] deals with Myc-tagged PARP1 (UniProt P09874). The assay can be described thus: co-IP; HEK293T cells transfected with Flag- and/or Myc-tagged proteins; lysates incubated with anti-Flag-agarose or anti-Myc-agarose beads overnight at 4 °C; washed five times with RIPA; Western blot. (A western blot detects proteins with antibodies after separation by electrophoresis.)
For assay [2] the target is unchanged. The assay can be described thus: co-IP; cell-free: purified Flag-NPM1 mixed with purified Myc-PARP1, treated with RNase; anti-Myc magnetic beads at 4 °C overnight; washed five times with RIPA; Western blot; both purified.
The target in assay [3] is Flag-tagged NPM1 Δ35 (truncated form of NPM1 with the last 35 amino acids at its C-terminus deleted) (UniProt P06748). The experiment in a line: co-IP; HEK293T cells transfected with Flag- and/or Myc-tagged proteins; lysates incubated with anti-Flag-agarose or anti-Myc-agarose beads overnight at 4 °C; washed five times with RIPA; Western blot.
In assay [4] the target is Flag-tagged NPM1 (nucleophosmin) (UniProt P06748). The description is as above.
Assay [5] deals with endogenous PARP1 (human (endogenous in MDA-MB-231)) (UniProt P09874). The assay can be described thus: co-IP; MDA-MB-231 lysates immunoprecipitated with anti-NPM1, anti-PARP1 or control IgG; Protein A/G-agarose overnight; washed five times with RIPA; Western blot.
Assay [6] deals with endogenous NPM1 (nucleophosmin) (human (endogenous in MDA-MB-231)) (UniProt P06748). The assay is described as above.

Results are given in words; binding and its absence hold for the method and conditions named. For part of these data: In cells and extracts the contact can be indirect. Some entries that bind do so weakly or less than the wild type.

For “Flag-tagged NPM1 (nucleophosmin) (from UniProt P06748 1-294)”, the binding result with Myc-tagged PARP1 [1] and with Myc-tagged PARP1 [2] was “binds” each time.

As to “Myc-tagged PARP1 (from UniProt P09874 1-1014)”, the binding result is listed as “no binding” in assay [3] and “binds” in assay [4]. Take “endogenous NPM1 (nucleophosmin) (from UniProt P06748 1-294)”: the binding result in assay [5] is on record as “binds”. As for “endogenous PARP1 (from UniProt P09874 1-1014)”, the binding result in assay [6] is given as “binds”.
